Reference: ChEMBL document CHEMBL4888484, “Replenishing the malaria drug discovery pipeline: Screening and hit evaluation of the MMV Hit Generation Library 1 (HGL1) against asexual blood stage Plasmodium falciparum ,using a nano luciferase reporter read-out” (2022)
In all, about 150,000 compounds went through this assay and about 540 (0.36%) showed an effect of 50% or more. Some of the results follow.

system: Plasmodium falciparum; assay: Primary screen in NF54 nanoGlo assay, in single point, at 2uM, 72h; a lower Z score goes with more inhibition; type: functional, Erythrocyte; conditions: timepoint 72 hour

Compound	% Inhibition [%]	Z score
CCN1C(=O)c2cc(NC(=O)c3ccc(OC(C)C)cc3)ccc2Oc2ccccc21	-24	2.82
Cc1nn(C(=O)c2ccco2)c2c1[C@H]1[C@@H](C2)C1(C)C	-10	1.24
O=C(c1cnc(NCc2nccc(C(F)F)n2)c(Cl)c1)N1CCOCC1	-8	1.43
CC(=O)N(Cc1cccc(OS(=O)(=O)c2c(C)cccc2Cl)c1)CC1CC1	3	-0.46
CCC(NC1COC2(CCC2)C1)C(c1ccc(C)cc1)n1cncn1 (stereo not drawn)	5	-0.97
Cc1cnc([C@@H](NS(=O)(=O)c2ccc(OCC(F)F)cc2)C2CC2)s1	-5	0.55
O=C(O)CCc1cc2n(n1)CCCN(Cc1ccc([C@@H]3CCCO3)s1)C2	-9	1.7
CN(Cc1ccc(N2CCOCC2)cc1)C[C@H](O)c1cccc(F)c1	3	-0.38
COc1ccccc1CNC(=O)N1CCN2CCC[C@H]2C1	-9	1.1
CC1CCCC(NC(=O)C2(C)CCCO2)C1 (stereo not drawn)	1	-0.2
Fc1ccc(N2CCC(CN3CCOCC3)CC2)nc1	-15	1.97
O=C(NCc1cn(-c2ccncc2)nn1)c1ccc2c(c1)OCO2	13	-1.75
NC(=O)C1CCN(C(=O)CC2CC3CCC2C3)CC1 (stereo not drawn)	-1	0.07
CCc1nocc1CN1CCNCc2ccccc21	-7	1.3
CCn1ccnc1CN(Cc1ccsc1)CC(C)C	5	-1.01
C[C@@H](C(=O)N1CCn2nc(Cc3ccccc3)cc2C1)n1cncn1	-7	1
CC1(C)CN(C(=O)CCc2cccnc2)C[C@]1(C)O	-5	0.59
CN(C)S(=O)(=O)c1cccc(NC(=O)Cc2cn(-c3ccccc3)nc2-c2ccc(Cl)cc2)c1	26	-2.96
CCOC(=O)C(F)(F)[C@@H](NCC(=O)OC)C1CC1	39	-5.6
COCC(=O)N1CCN(C(=O)c2ccc(Cc3ccccc3)[nH]2)CC1	-9	1.3
Cc1ccc2c(c1)cc(C(=O)N1C[C@H](C(=O)O)[C@@H](C3CC3)C1)n2C	-14	1.99
Cc1cc(N2CC[C@H]3[C@H](CCC(=O)N3CCCO)C2)nc2ccccc12	-10	1.83
COc1nc(N[C@H]2CCCN(C)C2)ncc1F	3	-0.5
O=C1CCCC[C@@](Cc2ccccc2)(C(=O)NCc2ccc(Cl)cc2)N1	-7	0.8
